Test results from PubChem BioAssay AID1347043 (National Center for Advancing Translational Sciences (NCATS), 2019).
Among all 76,000 compounds or so, about 1,900 (2.5%) were called active. Inconclusive results, whose numbers are uncertain, are shown with a selection of clear calls. Calls follow the shape of the dose curve; as a rule, active = well fitted inhibition curve with a large enough effect; inconclusive = small, poorly fitted or top-dose-only effect; inactive = flat fitted curve, though single readings scatter. A potency beside an inconclusive call is a rough fit, not a confirmed value.

The molecules below were run against Luciferin 4-monooxygenase (Photinus pyralis) (UniProt P08659) (assay: Firefly luciferase inhibition profiling of diverse chemical library using quantitative high-throughput screening). Settings: purified P. pyralis luciferase, luminescence, biochemical; series mostly up to 115 µM.
Summary of the method: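 Purified P. pyralis luciferase (10nM final) in 50mM Tris acetate pH 7.5, 10mM Mg acetate, 0.01% Tween-20, 0.05% BSA with 10uM D-luciferin and 10uM ATP. Compounds titrated qHTS. Luminescence imaged on CCD.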
Also: nearly all actives have a fitted effect of over 65% in size.
Potency is read from the fitted curve at half-maximal effect; tags tell the direction and shape of the fitted curve.

Sequence of UniProt P08659 (P08659 whole entry, looked up): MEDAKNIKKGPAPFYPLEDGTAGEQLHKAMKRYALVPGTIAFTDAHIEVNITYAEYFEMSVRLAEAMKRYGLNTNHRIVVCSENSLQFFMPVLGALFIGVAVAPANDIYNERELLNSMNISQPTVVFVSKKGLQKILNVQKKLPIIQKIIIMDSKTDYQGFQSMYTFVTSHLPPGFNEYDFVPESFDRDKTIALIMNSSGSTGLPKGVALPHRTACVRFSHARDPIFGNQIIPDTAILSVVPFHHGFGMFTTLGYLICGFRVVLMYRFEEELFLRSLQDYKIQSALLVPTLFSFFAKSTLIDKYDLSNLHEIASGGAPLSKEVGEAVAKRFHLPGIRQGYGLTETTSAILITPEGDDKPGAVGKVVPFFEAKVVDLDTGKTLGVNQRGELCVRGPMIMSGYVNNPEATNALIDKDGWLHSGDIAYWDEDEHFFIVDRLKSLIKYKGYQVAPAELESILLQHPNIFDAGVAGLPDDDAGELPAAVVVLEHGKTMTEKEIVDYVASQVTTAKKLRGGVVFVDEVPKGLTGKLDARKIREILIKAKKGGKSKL

`Cc1nnc(CN(C)c2ccc(-c3nc(CCCc4ccccc4)no3)cn2)o1` was tested. Which Potency did it give?
Its Potency is inconclusive: 39.8 µM [inhibitor, partial curve].

Which Potency does the source give for `O=C(Cc1ccccc1)N1CC(Oc2ccc(-c3nc(-c4ccccc4)no3)cc2)C1` here?
Its Potency is inconclusive: 35.5 µM [inhibitor, partial curve, poor fit].

`CCCNc1cc(N2CCC(CCC(=O)NCc3ccccc3Cl)CC2)ncn1` was tested. Which Potency did it give?
Its Potency is inconclusive: 44.7 µM [inhibitor, partial curve].

`CC(C)C[C@@H]1N[C@H](C(=O)NCCCn2ccnc2)Cc2c[nH]c3cccc1c23` was tested. Which Potency did it give?
Its Potency is “inactive”.

Which Potency does the source give for `CC1(c2ccccc2)N(Cc2ccccc2)C(=O)OC12CCN(Cc1cccc(O)c1)CC2` (configuration not stated) here?
The Potency was “inactive”.

With `COc1ccc(-c2noc(-c3cccn3CC(=O)N(C)c3ccccc3)n2)cc1F` as the molecule, how does the Potency read?
The Potency was “inactive”.

Which Potency does the source give for `Cc1ccc(C2Cn3nnc(C(=O)N4CCC(C(=O)NCc5ccccc5Cl)CC4)c3CO2)cc1` (configuration not stated) here?
The Potency was inconclusive: 44.7 µM [inhibitor, partial curve].

With `O=C1c2c(nc(CNCc3ccc4c(c3)OCO4)n2Cc2ccccc2)NCCN1CCOc1ccccc1` as the molecule, how does the Potency read?
The Potency was “inactive”.

Which Potency does the source give for `CCOc1ccc(NC(=O)CC2CCOCC2)cc1` here?
Its Potency is inconclusive: 50.1 µM [inhibitor, partial curve].

`COc1cc(-c2ccnc3nc(CCC4CCCC4)nn23)cc(OC)c1OC` was tested. Which Potency did it give?
Its Potency is “inactive”.

How did the Potency turn out when `CC(NC(=O)c1ccc(-c2ccc(N3CCCCCC3)nc2)cc1)c1cccnc1` (configuration not stated) was run?
Its Potency is inconclusive: 44.7 µM [inhibitor, partial curve].

`O=C1c2c(nc(COc3cc(F)cc(F)c3)n2Cc2ccccc2)NCCN1Cc1ccccc1` was tested. Which Potency did it give?
The Potency was “inactive”.

For `Cc1cc(CNC(=O)C2CCCCn3nnnc32)c2[nH]c(-c3ccccc3)c(C)c2c1` (configuration not stated), which Potency is on record?
The Potency was active: 8.91 µM.

`COC(=O)[C@@H]1CCCN1c1ccc(-c2nc(-c3ccccc3F)no2)cn1` was tested. Which Potency did it give?
The Potency was inconclusive: 0.282 µM [inhibitor, full curve, poor fit].

For `COc1cccc(CNC(=O)Nc2cccc(-c3ccc(N4CCCCC4)nn3)c2)c1`, which Potency is on record?
Its Potency is active: 0.251 µM.

`O=C1C[C@@H]2CCN(C(=O)Nc3ccccc3)C[C@@H]2CCN1CCc1cnc[nH]1` was tested. Which Potency did it give?
The Potency was “inactive”.

For `COc1cccc(-c2cc3c(=O)n(CCNC(=O)Cc4cccs4)ccn3n2)c1`, which Potency is on record?
Its Potency is active: 15.8 µM.

Which Potency does the source give for `N#Cc1cccc(CN2C[C@H](O)C[C@H]2c2nc(-c3ccc4c(c3)OCO4)no2)c1` here?
The Potency was inconclusive: 79.4 µM [inhibitor, partial curve].

`OCc1ccc(CN2C[C@H](O)C[C@H]2c2nc(-c3ccccc3)no2)o1` was tested. Which Potency did it give?
Its Potency is active: 44.7 µM.

Which Potency does the source give for `CC1=C[C@@H](CN2CCC(C(N)=O)CC2)[C@H](C(C)C)C[C@H]1Cc1nnc(-c2ccc(N(C)C)cc2)o1` here?
The Potency was “inactive”.

How did the Potency turn out when `O=C(Cc1ccsc1)N1CCC2(CC1)CC(N(Cc1ccc(F)cc1)C1CC1)CCO2` (configuration not stated) was run?
The Potency was “inactive”.

For `O=C(NC1CCCN(c2cc(-c3ccccc3)[nH]n2)C1)c1ccncc1` (configuration not stated), which Potency is on record?
The Potency was inconclusive: 44.7 µM [inhibitor, partial curve].

Which Potency does the source give for `CCOc1ccc(-c2cc3c(=O)n(CCNC(=O)Cc4cccs4)ccn3n2)cc1` here?
Its Potency is inconclusive: 3.98 µM [inhibitor, full curve].

How did the Potency turn out when `O=C(NC1CCCN(c2cc(-c3ccc(F)cc3)[nH]n2)C1)c1ccccn1` (configuration not stated) was run?
Its Potency is inconclusive: 44.7 µM [inhibitor, partial curve].

For `CC1(c2ccccc2)N(Cc2ccc(O)cc2)C(=O)OC12CCN(C(=O)c1ccccc1)CC2` (configuration not stated), which Potency is on record?
Its Potency is “inactive”.

For `CN1C[C@H]2CNC[C@@]2(C(=O)NCc2ccccc2OCc2ccccc2)C1`, which Potency is on record?
The Potency was inconclusive: 50.1 µM [inhibitor, partial curve].

`CN1C(=O)CO[C@H](c2ccc(NC(=O)c3cccc(F)c3)cc2)[C@H]1CO` was tested. Which Potency did it give?
Its Potency is inconclusive: 126 µM [inhibitor, single point].

For `O=c1[nH]c2cccnc2n1CCc1ccccc1`, which Potency is on record?
The Potency was inconclusive: 79.4 µM [inhibitor, partial curve, poor fit].

How did the Potency turn out when `Cc1cccc(-c2nc(Cn3c(-c4ccccc4)nc(C)c(CCO)c3=O)c(C)o2)c1` was run?
Its Potency is “inactive”.

For `Cc1ccc(C2Cn3cnc(C(=O)N4CCC(C(=O)NC5CCCCC5)CC4)c3CO2)cc1` (configuration not stated), which Potency is on record?
The Potency was inconclusive: 39.8 µM [inhibitor, partial curve].

`N#Cc1cccc(-c2cn3c(n2)N(C(=O)CC2CCNCC2)CCC3)c1` was tested. Which Potency did it give?
The Potency was inconclusive: 44.7 µM [inhibitor, partial curve].

How did the Potency turn out when `Cc1ccc(-n2nc(C)c([C@@H]3C=C[C@@H](NCc4ccc(F)cc4)C3)c2C)cc1Cl` was run?
The Potency was active: 44.7 µM.

`O=C(CN1CC2CC(C1)[C@H]1CCCC(=O)N1C2)N1CCN(Cc2ccc3c(c2)OCO3)CC1` (some centres not stated) was tested. Which Potency did it give?
The Potency was “inactive”.

With `Cc1ccc(SCc2ccc(-c3nc(C4CCOC4)no3)o2)cc1` (configuration not stated) as the molecule, how does the Potency read?
The Potency was inconclusive: 39.8 µM [inhibitor, partial curve].

How did the Potency turn out when `COc1cc(NC(=O)Nc2cccc(-c3ccc(N4CCOCC4)nn3)c2)cc(OC)c1` was run?
The Potency was active: 0.708 µM.

Which Potency does the source give for `CC(C)C(=O)N1CCc2c(n(Cc3ccccc3)n(-c3ccccc3)c2=O)C1` here?
The Potency was “inactive”.

With `CN(C)c1cccc(C(=O)N2CCC3(CC2)NC(=O)N(c2ccccc2)N3)c1` as the molecule, how does the Potency read?
The Potency was inconclusive: 50.1 µM [inhibitor, partial curve].

For `COCCNc1ncc(-c2cccc(C(C)=O)c2)c2c1OCC2`, which Potency is on record?
The Potency was inconclusive: 70.8 µM [inhibitor, partial curve].

For `COc1cccc(C(O)c2nc(C(=O)Nc3nc(C)cs3)c(C)o2)c1` (configuration not stated), which Potency is on record?
Its Potency is inconclusive: 56.2 µM [inhibitor, partial curve].

`Cc1ccc(-c2cc3c(=O)n(CCNC(=O)c4ccoc4)ccn3n2)cc1C` was tested. Which Potency did it give?
The Potency was active: 7.08 µM.

For `CCN(C(=O)CN1C(=O)NC2(CCS(=O)(=O)CC2)C1=O)c1ccccc1`, which Potency is on record?
The Potency was inconclusive: 100 µM [inhibitor, partial curve, poor fit].

With `Cc1nc2c(OCC(=O)c3ccccc3)cccn2c(=O)c1-c1cc(C)n(-c2ccc(Cl)cc2)n1` as the molecule, how does the Potency read?
Its Potency is active: 28.2 µM.

With `CC(C)CCNC(=O)c1c(OCC2CC2)cc(=O)n2c1CCOCC2` as the molecule, how does the Potency read?
The Potency was “inactive”.

For `CN(C)c1ccc2ncc(Nc3ccccc3)n2n1`, which Potency is on record?
The Potency was inconclusive: 89.1 µM [inhibitor, partial curve].

How did the Potency turn out when `COc1ncccc1-c1cn(C)c(=O)n2cc(CNc3ccccc3)nc12` was run?
The Potency was inconclusive: 63.1 µM [inhibitor, full curve].

Which Potency does the source give for `CC(=O)NC1(C)CCN(Cc2ccc(-c3ccc4ccccc4c3)cc2)C1` (configuration not stated) here?
The Potency was inconclusive: 1.58 µM [inhibitor, full curve].

For `COc1ccnc(N2CC[C@H](c3nnc(-c4ccc(C)cc4)o3)C2)n1`, which Potency is on record?
The Potency was inconclusive: 126 µM [inhibitor, partial curve, poor fit].

For `N#Cc1cccc(-c2cn3c(n2)N(C(=O)C2CCC2)CCC3)c1`, which Potency is on record?
Its Potency is inconclusive: 50.1 µM [inhibitor, partial curve].

How did the Potency turn out when `COc1ccc(CN2C[C@H](O)C[C@H]2c2nc(-c3cccc(C)c3)no2)c2ccccc12` was run?
Its Potency is active: 20 µM.

For `Cc1ccc(NC(=O)CN2C(=O)NC(c3ccc(Cl)cc3)C3=C2COC3=O)cc1Cl` (configuration not stated), which Potency is on record?
Its Potency is inconclusive: 25.1 µM [inhibitor, full curve].

How did the Potency turn out when `OC1CCCN(c2ccc(-c3nc(-c4cccc(C(F)(F)F)c4)no3)cn2)C1` (configuration not stated) was run?
Its Potency is active: 1.58 µM.

How did the Potency turn out when `CCOc1ccccc1C(=O)NC1CCCN(c2cc(-c3ccc(Cl)cc3)[nH]n2)C1` (configuration not stated) was run?
The Potency was inconclusive: 12.6 µM [inhibitor, partial curve, poor fit].

How did the Potency turn out when `COc1cc(F)cc(-c2ncc3c(n2)OCCN(c2cccc(C(F)(F)F)c2)C3=O)c1` was run?
The Potency was active: 3.16 µM.

Which Potency does the source give for `Cc1cnc(NC(=O)c2ccc3c(c2)OCCN(CCC(C)C)C3)s1` here?
The Potency was inconclusive: 25.1 µM [inhibitor, full curve].

With `CC(C)C(=O)N1CCC(COc2ccc3c(cnn3CC[S+](C)(=O)[O-])c2)CC1` as the molecule, how does the Potency read?
The Potency was inconclusive: 79.4 µM [inhibitor, partial curve].

How did the Potency turn out when `Cc1ccc(CNC(=O)CC2CCOCC2)o1` was run?
The Potency was “inactive”.

`CN(C)c1cccc(C(=O)N2CCC(n3cc(-c4nc(-c5ccccc5)no4)nn3)C2)c1` (configuration not stated) was tested. Which Potency did it give?
The Potency was active: 31.6 µM.

How did the Potency turn out when `CC(C)c1noc([C@H]2C[C@@H]3C(=O)NCCCCCCN(C(=O)Cc4cccnc4)[C@@H]3C2)n1` was run?
The Potency was “inactive”.

How did the Potency turn out when `Cc1oc2c(c1C(=O)NC(C)c1ccco1)CN(Cc1ccc(F)cc1)CC2` (configuration not stated) was run?
Its Potency is inconclusive: 56.2 µM [inhibitor, partial curve].

With `C[C@]1(CO)[C@H]2Cc3sc(NC(=O)c4ccc(F)cc4)nc3[C@@H](CC(=O)NC3CCCCC3)[C@]2(C)CC[C@H]1O` as the molecule, how does the Potency read?
Its Potency is “inactive”.

How did the Potency turn out when `Cc1cc(C)c(CNC(=O)c2cc(-c3ccc(F)cc3)cc3ncn(C)c23)c(=O)[nH]1` was run?
Its Potency is inconclusive: 14.1 µM [inhibitor, full curve].

How did the Potency turn out when `COc1ccc(NC(=O)N[C@H]2CO[C@H]3[C@@H]2OC[C@H]3OC(=O)Nc2ccc(OC)cc2)cc1` was run?
Its Potency is inconclusive: 100 µM [inhibitor, single point].

How did the Potency turn out when `COc1ccc(NC(=O)c2cccc3c2CCN3C(=O)Nc2ccc(F)cc2)cc1` was run?
The Potency was inconclusive: 39.8 µM [inhibitor, partial curve].

Which Potency does the source give for `CN(CC1CCOC1)C(=O)Nc1ccc(Cl)cc1` (configuration not stated) here?
The Potency was inconclusive: 50.1 µM [inhibitor, partial curve].

Which Potency does the source give for `Cc1nc(CN2CCOc3c(O)cc(-c4nc5ccccc5s4)cc3C2)no1` here?
The Potency was “inactive”.

How did the Potency turn out when `CC(C)c1ccc(NC(=O)N[C@H]2CO[C@H]3[C@@H]2OC[C@H]3OCc2ccccc2)cc1` was run?
The Potency was inconclusive: 100 µM [inhibitor, partial curve, poor fit].

With `CCCNC(=O)CCC1CCN(c2cc(NCCC)ncn2)CC1` as the molecule, how does the Potency read?
The Potency was inconclusive: 56.2 µM [inhibitor, partial curve].
